# Laboratory results from the supplement of paper PMC3334620.
# Over roughly 33,000 sequences, “E-score (-0.5 to 0.5)” has its median near -0.012; the highest 2% begin near 0.29. Some of the results follow.
# Target: T1, Ybr033w (UniProt P38073)
# T1 sequence: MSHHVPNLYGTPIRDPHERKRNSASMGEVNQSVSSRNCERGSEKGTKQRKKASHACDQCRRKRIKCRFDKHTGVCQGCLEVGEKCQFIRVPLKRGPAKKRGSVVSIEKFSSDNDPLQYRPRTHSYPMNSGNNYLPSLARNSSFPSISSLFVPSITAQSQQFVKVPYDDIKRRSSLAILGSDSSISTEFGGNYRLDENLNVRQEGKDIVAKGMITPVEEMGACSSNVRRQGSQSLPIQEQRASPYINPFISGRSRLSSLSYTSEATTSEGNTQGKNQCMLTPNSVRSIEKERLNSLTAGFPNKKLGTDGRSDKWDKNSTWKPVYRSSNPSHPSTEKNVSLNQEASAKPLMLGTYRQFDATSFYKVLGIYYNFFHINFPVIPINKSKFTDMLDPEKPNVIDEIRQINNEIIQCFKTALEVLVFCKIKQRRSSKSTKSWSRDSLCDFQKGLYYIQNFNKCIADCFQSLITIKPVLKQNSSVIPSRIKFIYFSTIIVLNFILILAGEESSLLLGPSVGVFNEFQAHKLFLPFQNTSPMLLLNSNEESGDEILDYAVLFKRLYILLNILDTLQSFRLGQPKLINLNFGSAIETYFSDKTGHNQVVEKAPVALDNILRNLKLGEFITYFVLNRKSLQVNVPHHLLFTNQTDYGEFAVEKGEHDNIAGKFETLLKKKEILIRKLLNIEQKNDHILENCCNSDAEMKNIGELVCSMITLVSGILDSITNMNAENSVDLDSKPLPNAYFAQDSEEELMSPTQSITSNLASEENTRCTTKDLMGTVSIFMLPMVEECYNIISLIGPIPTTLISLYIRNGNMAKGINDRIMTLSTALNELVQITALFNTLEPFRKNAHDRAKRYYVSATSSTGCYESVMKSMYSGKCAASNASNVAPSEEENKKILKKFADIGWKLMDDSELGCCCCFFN
# Experiment: PBM E-score (8-mer binding enrichment) (E-score (-0.5 to 0.5)); higher = stronger / more preferred TF binding; most listed sequences are background and not binding sites
# Details: protein concentration: 200 nM; construct: GST-full length
# Summary of the method: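 Universal all-10-mer Agilent arrays, fresh or stripped once, were converted to double-stranded form by primer extension. GST-tagged yeast transcription factors from PURExpress in vitro transcription/translation, full-length or DNA-binding domain only, were applied at about 100-200 nM and detected with fluorescent anti-GST. After masliner normalisation, the Universal PBM Analysis Suite scored each ungapped eight-base word together with its reverse complement by E-score.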
row,Sequence,PBM E-score
1,ACTCGGTG,-0.0597
2,GCACCGTA,-0.103
3,AGTTCCGG,0.0928
4,AACTACAA,0.257
5,GCCTTACC,-0.347
6,TGAGTCCA,-0.0716
7,GAAGCCTC,-0.254
8,AATGATGT,0.17
9,GGTGCGGA,-0.0249
10,AGACTCAT,-0.00715
11,TAGACATA,0.144
12,ACTCAGAG,-0.0221
13,ATTCGGAA,0.269
14,ACGAACCT,0.0105
15,CGCACAAA,0.165
16,ATCCAGCG,0.0787
17,AGGGTACT,-0.117
18,CTAGTATA,0.0541
19,CAAGTGGC,0.0512
20,TCTCAAAA,0.143
21,GCCAAGAA,-0.0504
22,CGCGCTTC,-0.0688
23,CGGCTCCC,-0.269
24,ATTCGGGG,0.0149
25,ATAAGCTG,-0.0152

row,Sequence,PBM E-score
1,CACCTGAC,-0.108
2,ATCGCGCC,0.056
3,GGAGTAAA,0.246
4,AACAGCTT,-0.166
5,GGTTAGGA,-0.155
6,CGGAGCGA,0.146
7,AACCATAT,0.211
8,TATCTCCA,0.159
9,CTATACAC,-0.0765
10,CCTGCCAA,-0.26
11,CTACTTGC,0.0243
12,AGAGGACG,0.114
13,ATGCGTTC,0.165
14,AACTAGCT,-0.0201
15,GAACGGCC,-0.0853
16,ATCGGAGA,0.0326
17,AGTGCTAG,0.0412
18,ACGCTTGC,0.00263
19,AAAGACGC,-0.0864
20,ACCCCGAA,0.0331
21,AAGTCCTA,0.0341
22,AAACAGGG,-0.0591
23,ACTACCCC,-0.227
24,ACGATACA,0.0132
25,GTGAACAA,0.124

row,Sequence,PBM E-score
1,AATCTGTC,-0.124
2,CAGCGGCG,-0.0125
3,CCTATCAA,0.0668
4,CGCAGGAA,0.0111
5,TACTTAAA,0.152
6,TGTAAAAA,0.114
7,AACGCTGA,-0.228
8,CAGGATGA,-0.0551
9,AGTGCACG,-0.0824
10,CGATTGCC,-0.081
11,CGCCGCAA,0.0684
12,CGCTCCTA,-0.101
13,ACTTGACT,-0.0757
14,ATCGCGTC,-0.0472
15,AGGTTTTA,-0.042
16,CAATATGC,0.00467
17,CCTAGAAA,0.11
18,AGCAAAAG,-0.0569
19,CTCGATAC,0.215
20,AAGTGTAT,-0.0335
21,AACTCTAT,-0.00078
22,AAATTCGT,0.258
23,CTAGTCTA,-0.166
24,TCCCTGAA,-0.0456
25,AATCTTTA,0.197

row,Sequence,PBM E-score
1,ACTACTAA,0.173
2,CCCGGTAA,-0.121
3,ACCAGTTG,0.0516
4,AACCAGGA,0.151
5,CCTAGACC,-0.0857
6,CTACCATA,0.115
7,GTGACCAC,-0.2
8,TAGCAAAA,0.233
9,CGTGTAAA,-0.0415
10,AAAAGCTC,0.0811
11,CGCCACGC,-0.403
12,CCTTGGTC,-0.159
13,CTATAGAG,-0.045
14,ACACGCAT,0.0109
15,CACCAAAC,0.0403
16,ATGCGCTG,-0.0829
17,ATTACTTG,0.143
18,CCCCCCAA,-0.246
19,GAGGAACA,0.171
20,CCCGTGGA,-0.113
21,GCGCCTAC,-0.105
22,CTGTGACC,-0.194
23,CCGCCGTA,-0.0482
24,GGGTGGGA,-0.0877
25,CTGGATCC,0.0768

row,Sequence,PBM E-score
1,AGAAGGCG,-0.177
2,GAACTCTC,-0.0358
3,AATACGGT,-0.0205
4,GATCCTTA,0.122
5,CAAGATTC,0.157
6,CTGCTTGA,-0.0898
7,ACGCTTGG,-0.217
8,ATATATGC,0.0357
9,AGATAGAC,0.00447
10,GAATCAGA,0.187
11,AGCTAACT,0.0358
12,ACAGTATC,0.034
13,GCTATGGA,-0.06
14,AGGGAACT,0.0105
15,GACGGACC,-0.0665
16,ATGAATAA,0.15
17,CGCGCATC,-0.0296
18,ACGCAGAT,-0.0738
19,CTCCTTCC,-0.244
20,ATCTGGGA,-0.212
21,CAAGGGCG,-0.226
22,AATGATTG,0.092
23,AGGTTCGA,0.073
24,ACAAAGCC,0.0507
25,TAAACACA,0.141

row,Sequence,PBM E-score
1,ATGTCAAC,0.134
2,AGGATCCG,-0.284
3,AGTCGGAA,0.194
4,TCCAGCAA,0.125
5,GGGTGACA,-0.141
6,AGCAGAAT,0.0992
7,CGGTTTAG,-0.141
8,AATGGTGG,0.00708
9,ACTGTCGG,-0.278
10,AATGAAAA,0.134
11,ATCACGTC,-0.0343
12,AGACTGTA,-0.175
13,AGGTTATC,0.0654
14,CCGTCCAC,0.0972
15,TCCTGAAA,0.0753
16,GTGGCGCA,-0.102
17,CTACGATA,0.115
18,CCTATTCC,-0.0179
19,GCTCTAAA,-0.0694
20,ATAAAAGA,0.132
21,GCGTCGGA,0.0107
22,AGATCGGG,-0.245
23,AATGGGCA,-0.0312
24,CAACTATC,0.0163
25,GCCACAGA,-0.22

row,Sequence,PBM E-score
1,CGAAACCG,0.0838
2,AAAAATGA,0.233
3,CAACAAGG,0.121
4,CTGTGCAC,-0.179
5,GCCGTTAC,-0.138
6,ATAAGGAG,-0.0849
7,CTCCTGTC,-0.0458
8,GGTGGCAC,-0.246
9,CTCCATCA,0.158
10,CCACCCAA,-0.0606
11,GACGATGC,-0.147
12,AATAACGG,0.211
13,TCGCGAGA,-0.055
14,AGCTACGG,-0.217
15,AGTCAAGC,-0.128
16,ACGCGCCA,-0.0813
17,CGATGGTA,-0.0391
18,ATTTTTAA,0.279
19,CAAAGGAC,-0.202
20,GCAACACC,-0.139
21,GGCGATAC,-0.177
22,TCGCAAAA,0.211
